# Measured values taken from the supplement of paper PMC11417369.
# This is one part of the list.
# Tested on: PfAP2-HC AP2 domain (GST-tagged)
# Experiment: gcPBM binding intensity (ln(normalized median fluorescence intensity)); higher = stronger DNA binding
# Outline: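 Using an Agilent 4 × 180k array, primer-extended double-stranded 36-bp intergenic genomic probes and negative controls were exposed for 1 h to GST-fused P. falciparum DNA-binding domains expressed in E. coli. Binding was carried out in 1× PBS with 1% milk, 0.2 mg/ml BSA, 0.5% salmon testes DNA and 0.03% Triton X-100, and protein was detected with Alexa488 anti-GST antibody and a 488 nm scan. Binding intensity is the highest Masliner-normalised natural-log median intensity across replicate spots of either probe orientation.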
row,Sequence,gcPBM binding intensity (ln)
1,TTCAATATACATATGTGTACTAAAATAAATAGAAAA [XGTACX_site5708],9.61
2,ATTACAACATTTTATACACACGTGATTATTAATTTT [CACACA_site5581],9.86
3,TATATTTCAGGGGGGAGTACAAATTTTTTTATATAA [XGTACX_site1600],10
4,TTTATGAAGTAAAAATATAAATTCACAAAGTTAAAA [CACACA_negctrl_site1476],9.6
5,AAGAACAGAACGTACACACACATATTTATATTTATA [CACACA_site7594],10.2
6,TTTTCAAAGATATATACACACATGCATATTACGGTG [CACACA_site6505],9.85
7,TTTTTGAGTGCACATACACACAGACATACATTTAAA [CACACA_site5813],9.79
8,CATTATGTACAAAAAGTGCAATATATATTAACACTG,9.61
9,TTATATATATATATATATATATATATATATATAAAT [GTGCAC_negctrl_site126],9.46
10,AACAAAATAAGAAAACGTACAAATGTTTCAAATTCT [XGTACX_site1544],9.75
11,TATGTATATTCTTTCAGTACACATAATGTTGTCATA [XGTACX_site8845],9.66
12,AAAATGTTATTGGAAAGTACAAAAAAAATTATATAA [XGTACX_site4074],9.61
13,TGTATTAACAAAAAGGTGCGGATATATATAAAAAAT [GTGCAC_site9473],9.91
14,TTAATATATATATATATATATATATTTTTATTTTTT [CACACA_negctrl_site763],9.51
15,ATAAAACGTACAATGGTGCATATAAATAATATATAT [GTGCAC_site9960],9.98
16,CATATATAGATATATACACACATATATAAATAAATA [CACACA_site6759],9.97
17,TTCCTCTTAATATGTGCACACTAAATTATAACATAA [CACACA_site3260],9.82
18,CATACCATACATAAAACACACAAAATTTACATAATA [CACACA_site3100],9.94
19,TATAGTTTTATTATTTATGTGTTAAAATTATACAAG [TGCATGCA_negctrl_site246],9.42
20,ACCCATTTTAATTTAGTGCACATTTTACCTTTATAC,10.1
21,TTCTGCAGCAATGTTTTTTTTAAATATTTATATGGT [CACACA_negctrl_site1815],9.66
22,AAAAAAATAACAAAGTGTACTTTTATATTTTACATA [XGTACX_site8954],9.4
23,TTTTTTTCTTTTTCAAAAAAAAAAAAAAAAAAAATA [GTGCAC_negctrl_site329],8.93

row,Sequence,gcPBM binding intensity (ln)
1,GCTAGTTTTTTTTGGCGTACAGTACCGGTTTACTTT [XGTACX_site2606],9.7
2,AATATTTATAAATTTACACACACACGGGTGAACATA [CACACA_site6979],10.3
3,TTTAATTCCATAAGTAAACACACAAATGCCAAAATT [CACACA_site9049],9.76
4,ATTCTAAATTAAAATACACACATATATACATAATAT [CACACA_site2792],9.87
5,CAATTTGGTGTACAGGTGCACATGCCTCACGATAAA [GTGCAC_site9650],9.61
6,AAAAAAAAAAAAAAATGTACATATTAAGTATAATTA [XGTACX_site4616],9.6
7,TTAGCTCAATTTTTGGGTACACACAAATGTATAATA [XGTACX_site5003],9.61
8,GAAAAATGTAAATACATATATGTACACAAATATATA [GTGCAC_negctrl_site557],9.76
9,TATGTATGCCTGTTTTGTACTTAAGAAAATGTTGCT [XGTACX_site8443],9.62
10,AAAAAAAAAAAAAAAAGTACATAATATAAAATCTAA [XGTACX_site6019],9.34
11,TATGTAAAAACAGGCACACATATATCATATATATAT [CACACA_site619],9.96
12,AAAAAAAAATATCACACACACATAAATATAAACCAA [CACACA_site2279],10.5
13,AAAAAAAAAAAAACTACACACATAAAATATATTGTG [CACACA_site805],9.74
14,TAAAACATCAAGGGGTGTACAAAAAAGATGAACAGG [XGTACX_site6929],9.78
15,ATTGGGTTCATCAGCACACACAACATCATGTAATAA [CACACA_site5093],10.1
16,AGAGCATAATAAAACACACACATACATACATATATA [CACACA_site935],10.3
17,AGGCACTTATAATAATGTACATAAATAAAAAGAAAA [XGTACX_site6037],9.66
18,TATAAATATATATGTACACACATATACATGTTGAAT [CACACA_site3118],9.86
19,TATAAACATAAATATACACACAAACATCTATGTATT [CACACA_site4804],10
20,TACATATATATTTGTTCACACACACCCAAAAAAAAA [CACACA_site8788],10.3
21,TCTATGTAGTTTTTATGTACTAAATAAATAAATAAA [XGTACX_site2599],9.35
22,TAGAAGCAGAAACACACACACATACATACACATACA [CACACA_site1467],10.2
23,TTTTCAATATATATTTGTACTTTATTTTATGATATT [GTGCAC_negctrl_site732],9.89

row,Sequence,gcPBM binding intensity (ln)
1,GCATTCATTTTTAATACACACAAAAAAAAAATAAAA [CACACA_site2408],9.65
2,ACTATTAACAGTGTAGTGCAAAAAGGTTAATTATTA,10.1
3,TAAATGTCCTTATTTGCACACACACCGATAAGAAAT [CACACA_site5723],10
4,TTTGAAATGATATATAAACACACATATATATATATA [CACACA_site9170],10.1
5,CTAACAACCAAACGCACACACACAAAAAAAAAAATA [CACACA_site400],10.8
6,ATATTGAATTCCAACACATGCAAAACTTTCGGTTTT [TGCATGCA_site485],9.64
7,TATTAAAAGGTGAGTACACACATATATGCGTATATA [CACACA_site2102],9.85
8,AACAACTATTAATTTACACACATGTATATATCTTAC [CACACA_site7459],10
9,TACGCACAAAAATATACACACACACCGATATATTTA [CACACA_site9213],10.3
10,AGACATTTTTAAGCAAAACATTCATCATCTTATAAT [CACACA_negctrl_site1539],9.55
11,TATTTTACACATTTACGTACATAAATATATATATAT [XGTACX_site8788],9.92
12,AAAAAAAAAAAAGGCACACAAACATATGTAGACATA [CACACA_site2284],10
13,TCGTGTGTAATATTATATATATATATATAATATATA [TGCATGCA_negctrl_site289],9.69
14,TTTTAAGGTGTGAAGGTGCAAAAAGGTAAATAGGAA,9.8
15,TAAACAGAAGCACATACACACACTCAAAAAAAAAAA [CACACA_site3051],10.5
16,CACAAACACCCAAACACACACACACCGACATACATA [CACACA_site4410],11.1
17,AAAATACATAAACACACACACACACCGATATATATA [CACACA_site9186],11.6
18,AAATTGTCAAAACACGCACACACATATACATAATAA [CACACA_site1743],10.9
19,GTGATACGCTATAGGACACACGCTTAATAATTATAA [CACACA_site1694],9.6
20,ATCATAAATTATTATACACACAATACGTGACCTATT [CACACA_site1906],9.91
21,TCTTTTATATTGTAGAGTACATATTTTCAATATATA [XGTACX_site5586],9.57
22,TTCTTTTATAAAAGTAGTACAATTATATTGTAATTA [XGTACX_site2855],9.39
23,AAAAAAAAAAAACACACACACAAAATAAACAAACAA [CACACA_site2721],10.5

row,Sequence,gcPBM binding intensity (ln)
1,ATTATAATTATCAAGGTGCGTGTATTATAATAAATA [GTGCAC_site9917],9.72
2,TAATATAATAATAATTGTACTTTTCATAGTGTAATT [XGTACX_site8152],9.45
3,GGATATTATATAAAGTGTACAAGACAAATATATACA [XGTACX_site8173],10
4,ATATATCAAGGGAGTGAATGTTATGCATATGAATAT [TGCATGCA_negctrl_site573],9.68
5,AATAAATTAAATAAAAATGTTTAACATAAAATATGA [GTGCAC_negctrl_site373],9.74
6,AAATTAACAAACTGTAGTACTAACAATATATACAAA [XGTACX_site1772],9.78
7,ATTTTATTTTTTTGAAGTACGAATTCCGAGAAGAAA [XGTACX_site43],9.35
8,AAACAAAACAACTAAGTGCATAAAAATAAAATAAAT,9.99
9,TATAGTTCTTCTATTTGTACATATATTATTATTTAA [XGTACX_site895],9.77
10,TATTCAAAAATATAAACAATGAAACAGTATAATATG [CACACA_negctrl_site1482],9.59
11,TTATAATCAATGAATACACACATATATTTAATTAAT [CACACA_site3613],9.67
12,AATTTTCCATAGATTGTGCACAAATTTTTATTTTGT,9.82
13,AAGAAAAAGACTTCATGAAAAAGAATTTTTTTAATT [TGCATGCA_negctrl_site473],9.4
14,ATATATTTTTTTTTTATTTTATTATTATAATTTATC [XGTACX_negctrl_site16],9.7
15,TAATATTATTTTTCAGTGCAATATAACCTTAGAATT [GTGCAC_site9417],9.33
16,AACTGTAAAAAATATAAACACACATAGAAATATATA [CACACA_site8002],10.1
17,ATATATATATATAATAGTACATATATTTTGAAAGAT [XGTACX_site5800],9.77
18,TATGTGTGAAAAAAATGTACATATATATAAATTATA [XGTACX_site7202],9.81
19,AAAAATGAAAAATGAAAAATGAAAAATGAAAAATAA [CACACA_negctrl_site695],9.78
20,TATTCTTACAAAAGTAGTACAATCATTCATATTTTT [XGTACX_site631],9.66
